Read-outs that look alike come from different tables or passages of the source.
What was measured:
[1] = test system: adults with non-alcoholic fatty liver disease (NAFLD); details: for Serum triglycerides % Change of Combination vs Each Monotherapy, LS Mean: combination Cmpd A 15 mg + Cmpd D 300 mg relative to the monotherapy named as label; for Serum triglycerides % Change from Baseline, LS Mean / Serum triglycerides % Change from Placebo, LS Mean: NAFLD adults, FAS, MMRM, Cmpd A 15 mg, Cmpd D 300 mg
[2] = test system: adults with non-alcoholic fatty liver disease (NAFLD); assay: Phase 2A study: platelets; type: in vivo, human; details: Day 42; for Platelets LSMean (90% CI), placebo-adjusted % change from baseline: Cmpd A 15 mg Q12H, Cmpd D 300 mg Q12H; for Platelets % Change from Baseline, LS Mean / Platelets % Change from Placebo, LS Mean: FAS, Cmpd A 15 mg, Cmpd D 300 mg
Source text: Table 27 provides a statistical analysis of percent change from baseline in platelets on Day 42—FAS.

[3] = test system: adults with non-alcoholic fatty liver disease (NAFLD); assay: Phase 2A study: other lipids and apolipoproteins; type: in vivo, human; details: Day 42; for HDL-Cholesterol % Change from Baseline, LS Mean / HDL-Cholesterol % Change from Placebo, LS Mean / LDL-Cholesterol % Change from Baseline, LS Mean / LDL-Cholesterol % Change from Placebo, LS Mean / Non-HDL Cholesterol % Change from Baseline, LS Mean / Non-HDL Cholesterol % Change from Placebo, LS Mean / Total Cholesterol % Change from Baseline, LS Mean / Total Cholesterol % Change from Placebo, LS Mean: fasting serum, FAS, Cmpd A 15 mg, Cmpd D 300 mg
Source text: A summary of the statistical analysis of percent change from baseline in other fasting serum lipid parameters on day 42—FAS is provided in Table 23.
The LS Mean (and 90% Cls) percent change from placebo on Day 42 are given.

[4] = test system: adults with non-alcoholic fatty liver disease (NAFLD); assay: Phase 2A study: liver function tests (ALT, AST, alkaline phosphatase, GGT); type: in vivo, human; details: for ALT % Change from Baseline, LS Mean / ALT % Change from Placebo, LS Mean / AST % Change from Baseline, LS Mean / AST % Change from Placebo, LS Mean / Alkaline Phosphatase % Change from Baseline, LS Mean / Alkaline Phosphatase % Change from Placebo, LS Mean / GGT % Change from Baseline, LS Mean / GGT % Change from Placebo, LS Mean: FAS, Cmpd A 15 mg, Cmpd D 300 mg; for GGT change from baseline / alkaline phosphatase change: over the 6-week study
Source text: The LS Mean (and 90% CIs) percent change from placebo on Day 42 are given. Table 25 provides a statistical analysis of percent change from baseline in liver function tests on Day 42-FAS. FIGS. 25a-25d provide plots of least square means and 90% CIs for percent change from baseline in liver function tests—FAS. FIG. 25a provides the plot for alanine aminotransferase (ALT); FIG. 25b provides the plot for aspartate aminotransferase (AST); FIG. 25c provides the plot for alkaline phosphotate; and FIG. 25d provides the plot for gamma glutamyl transferase (GGT).

[5] = test system: adults with non-alcoholic fatty liver disease (NAFLD); assay: Phase 2A study: whole liver fat by MRI-PDFF; type: in vivo, human; details: Day 42
[6] = test system: adults with non-alcoholic fatty liver disease (NAFLD); assay: Phase 2A study: safety and tolerability, treatment emergent adverse events; type: in vivo, human; details: for discontinuation from study drug due to AEs: one subject per arm; for Number of adverse events / Subjects discontinued from study due to adverse events (a) / Subjects discontinued study drug due to AE and continue Study (b) / Subjects with adverse events / Subjects with dose reduced or temporary discontinuation due to adverse events / Subjects with serious adverse events / Subjects with severe adverse events: treatment emergent AEs, all causalities, safety analysis set, Cmpd A 15 mg, Cmpd D 300 mg
[7] = combination Cmpd A 15 mg + Cmpd D 300 mg relative to the monotherapy named as label
[8] = combination (Cmpd A + Cmpd D) versus the monotherapy named in the row
[9] = Day 42, combination Cmpd A 15 mg + Cmpd D 300 mg relative to the monotherapy named as label
[10] = NAFLD patients, ACCi 15 mg BID, DGAT2i 300 mg BID

`COc1cc(C(=O)N2CCC3(CC2)CC(=O)c2c(cnn2C(C)C)C3)cc(-c2ccc(C(=O)O)cc2)n1` [Compound A, 4-(4-(1-isopropyl-7-oxo-1,4,6,7-tetrahydrospiro[indazole-5,4′-piperidine]-1′-carbonyl)-6-methoxypyridin-2-yl)benzoic acid] was tested, and the “Serum triglycerides % Change of Combination vs Each Monotherapy, LS Mean” value ([1]; Study Day 5) was −9.53%, the “Serum triglycerides % Change of Combination vs Each Monotherapy, LS Mean” value ([1]; Study Day 14) was −12.58% and the “Serum triglycerides % Change of Combination vs Each Monotherapy, LS Mean” value ([1]; Study Day 28) was −25.99%. For the same compound, the “Serum triglycerides % Change of Combination vs Each Monotherapy, LS Mean” value ([1]; Study Day 42) was −28.03%, the “Platelets LSMean (90% CI), placebo-adjusted % change from baseline” value [2] was −7.12 (−14.51, 0.91) % and the “Platelets % Change from Baseline, LS Mean” value [2] was −9.35%. For the same compound, the “Platelets % Change from Placebo, LS Mean” value [2] was −7.12%, the “Platelets % Change of Combination vs Each Monotherapy, LS Mean” value [2, 7] was 9.00% and the “ApoC3 % Change from Baseline, LS Mean” value [3] was 45.31%. The “ApoC3 % Change from Placebo, LS Mean” value [3] was 42.71%, the LDL-cholesterol versus placebo [3] was “statistically significantly decreased” and the “ApoC3 % Change of Combination vs Each Monotherapy, LS Mean” value [3, 8] was −24.66%. For the same compound, the “HDL-Cholesterol % Change of Combination vs Each Monotherapy, LS Mean” value [3, 7] was −3.14%, the “LDL-Cholesterol % Change of Combination vs Each Monotherapy, LS Mean” value [3, 7] was 12.81% and the “Non-HDL Cholesterol % Change of Combination vs Each Monotherapy, LS Mean” value [3, 7] was −5.94%. For the same compound, the “Total Cholesterol % Change of Combination vs Each Monotherapy, LS Mean” value [3, 7] was −5.22%, the “HDL-Cholesterol % Change from Baseline, LS Mean” value [3] was −15.56% and the “HDL-Cholesterol % Change from Placebo, LS Mean” value [3] was −12.77%. The “LDL-Cholesterol % Change from Baseline, LS Mean” value [3] was −19.74%, the “LDL-Cholesterol % Change from Placebo, LS Mean” value [3] was −21.35% and the “Non-HDL Cholesterol % Change from Baseline, LS Mean” value [3] was 1.86%. For the same compound, the “Non-HDL Cholesterol % Change from Placebo, LS Mean” value [3] was −0.30%, the “Total Cholesterol % Change from Baseline, LS Mean” value [3] was −2.72% and the “Total Cholesterol % Change from Placebo, LS Mean” value [3] was −4.61%. The “ALT % Change from Baseline, LS Mean” value ([4]; Day 42) was −12.41%, the “ALT % Change from Placebo, LS Mean” value ([4]; Day 42) was −9.70% and the “AST % Change from Baseline, LS Mean” value ([4]; Day 42) was −0.03%. For the same compound, the “AST % Change from Placebo, LS Mean” value ([4]; Day 42) was −4.91%, the “Alkaline Phosphatase % Change from Baseline, LS Mean” value ([4]; Day 42) was 11.20% and the “Alkaline Phosphatase % Change from Placebo, LS Mean” value ([4]; Day 42) was 8.03%. The “GGT % Change from Baseline, LS Mean” value ([4]; Day 42) was 22.63%, the “GGT % Change from Placebo, LS Mean” value ([4]; Day 42) was 22.62% and the “ALT % Change of Combination vs Each Monotherapy, LS Mean” value [4, 9] was 5.15%. The “AST % Change of Combination vs Each Monotherapy, LS Mean” value [4, 9] was −3.84%, the “Alkaline Phosphatase % Change of Combination vs Each Monotherapy, LS Mean” value [4, 9] was −10.74% and the “GGT % Change of Combination vs Each Monotherapy, LS Mean” value [4, 9] was −10.16%. For the same compound, the “GGT change from baseline” value [4] was “an increase observed”, the alkaline phosphatase change [4] was “clear and statistically significant elevation” and the “Whole liver fat % Change of Combination vs Each Monotherapy, LS Mean” value [5, 8] was −0.21%. The “discontinuation from study drug due to AEs” value [6] was “discontinued due to severe AE of TG elevation”, the “Number of adverse events” value [6] was 17 and the “Subjects discontinued from study due to adverse events (a)” value [6] was 1 (3.4) n (%). For the same compound, the “Subjects discontinued study drug due to AE and continue Study (b)” value [6] was 0 n (%), the “Subjects with adverse events” value [6] was 10 (34.5) n (%) and the “Subjects with dose reduced or temporary discontinuation due to adverse events” value [6] was 1 (3.4) n (%). For the same compound, the “Subjects with serious adverse events” value [6] was 0 n (%) and the “Subjects with severe adverse events” value [6] was 1 (3.4) n (%).
For `CCOc1cccnc1Oc1cncc(-c2ncc(C(=O)N[C@H]3CCOC3)cn2)c1` [Compound D, (S)-2-(5-((3-ethoxypyridin-2-yl)oxy)pyridin-3-yl)-N-(tetrahydrofuran-3-yl)pyrimidine-5-carboxamide], the “Triglycerides LSMean (90% CI), placebo-adjusted % change from baseline” value ([1]; Day 42, Cmpd A 15 mg Q12H, Cmpd D 300 mg Q12H) was −8.63 (−24.37, 10.38) %, the “subjects exceeding triglyceride threshold >400 mg/dl, total number (%)” value [1, 10] was 2 (7.4) n (%) and the “subjects exceeding triglyceride threshold >600 mg/dl, total number (%)” value [1, 10] was 1 (3.7) n (%). For the same compound, the “subjects exceeding triglyceride threshold >800 mg/dl, total number (%)” value [1, 10] was 0 n (%), the “Serum triglycerides % Change from Baseline, LS Mean” value ([1]; Study Day 5) was −4.59% and the “Serum triglycerides % Change from Placebo, LS Mean” value ([1]; Study Day 5) was −13.26%. The “Serum triglycerides % Change from Baseline, LS Mean” value ([1]; Study Day 14) was −17.53%, the “Serum triglycerides % Change from Placebo, LS Mean” value ([1]; Study Day 14) was −17.87% and the “Serum triglycerides % Change from Baseline, LS Mean” value ([1]; Study Day 28) was −7.35%. The “Serum triglycerides % Change from Placebo, LS Mean” value ([1]; Study Day 28) was −19.25%, the “Serum triglycerides % Change from Baseline, LS Mean” value ([1]; Study Day 42) was −1.89% and the “Serum triglycerides % Change from Placebo, LS Mean” value ([1]; Study Day 42) was −8.63%. The “triglycerides on day 42, key finding” value ([1]; in words) was “modest decrease in triglycerides”, the “Platelets LSMean (90% CI), placebo-adjusted % change from baseline” value [2] was 7.50 (−0.99, 16.71) % and the “Platelets % Change from Baseline, LS Mean” value [2] was 4.92%. For the same compound, the “Platelets % Change from Placebo, LS Mean” value [2] was 7.50%, the “ApoC3 % Change from Baseline, LS Mean” value [3] was −6.52% and the “ApoC3 % Change from Placebo, LS Mean” value [3] was −8.19%. The LDL-cholesterol versus placebo [3] was “numerical lowering trends”, the “HDL-Cholesterol % Change from Baseline, LS Mean” value [3] was −13.43% and the “HDL-Cholesterol % Change from Placebo, LS Mean” value [3] was −10.58%. The “LDL-Cholesterol % Change from Baseline, LS Mean” value [3] was −5.22%, the “LDL-Cholesterol % Change from Placebo, LS Mean” value [3] was −7.12% and the “Non-HDL Cholesterol % Change from Baseline, LS Mean” value [3] was −3.51%. For the same compound, the “Non-HDL Cholesterol % Change from Placebo, LS Mean” value [3] was −5.56%, the “Total Cholesterol % Change from Baseline, LS Mean” value [3] was −5.87% and the “Total Cholesterol % Change from Placebo, LS Mean” value [3] was −7.70%. For the same compound, the “ALT % Change from Baseline, LS Mean” value ([4]; Day 42) was −4.15%, the “ALT % Change from Placebo, LS Mean” value ([4]; Day 42) was −1.18% and the “AST % Change from Baseline, LS Mean” value ([4]; Day 42) was 2.21%. For the same compound, the “AST % Change from Placebo, LS Mean” value ([4]; Day 42) was −2.77%, the “Alkaline Phosphatase % Change from Baseline, LS Mean” value ([4]; Day 42) was −7.51% and the “Alkaline Phosphatase % Change from Placebo, LS Mean” value ([4]; Day 42) was −10.15%. The “GGT % Change from Baseline, LS Mean” value ([4]; Day 42) was −6.31%, the “GGT % Change from Placebo, LS Mean” value ([4]; Day 42) was −6.32% and the “GGT change from baseline” value [4] was “no significant change from baseline”. For the same compound, the alkaline phosphatase change [4] was “clear and statistically significant decrease”, the “Whole liver fat % Change from Baseline, LS Mean” value ([5]; ANCOVA, Table 21) was −30.14% and the “Whole liver fat % Change from Placebo, LS Mean” value ([5]; ANCOVA, Table 21) was −35.40%. For the same compound, the “Liver Fat PDFF LSMean (90% CI), placebo-adjusted % change from baseline” value ([5]; Cmpd A 15 mg Q12H, Cmpd D 300 mg Q12H) was −35.40 (−47.40, −20.68) %, the “discontinuation from study drug due to AEs” value [6] was “discontinued from study drug due to mild AE of creatine kinase and AST elevations” and the “Number of adverse events” value [6] was 22. For the same compound, the “Subjects discontinued from study due to adverse events (a)” value [6] was 1 (3.6) n (%), the “Subjects discontinued study drug due to AE and continue Study (b)” value [6] was 1 (3.6) n (%) and the “Subjects with adverse events” value [6] was 10 (35.7) n (%). For the same compound, the “Subjects with dose reduced or temporary discontinuation due to adverse events” value [6] was 0 n (%), the “Subjects with serious adverse events” value [6] was 0 n (%) and the “Subjects with severe adverse events” value [6] was 0 n (%).

From patent US20230405002A1, “COMBINATIONS OF DIACYLGLYCEROL ACYLTRANSFERASE 2 INHIBITORS AND ACETYL-COA CARBOXYLASE INHIBITOR” (Pfizer Inc., priority 2020, published 2023)
